Values joined by “and” are separate entries in the source; they are usually repeats but may differ in a detail not shown here. Equal entries are not always repeated. The shares of active, inactive and inconclusive entries below differ from those in the screen. Potencies beside an inconclusive call are fits to weak or partial responses and may not hold up. Active and inactive are the calls of the source. Calls come from the whole dose curve; as a rule, active = well fitted inhibition curve with a large enough effect in the signal ratio in the repeat runs (not every such curve was filed as active); inconclusive = weak or mixed curves, or effect the other way; inactive = no such curve, though single readings can be large or run the other way; the % refers to the signal ratio.
These compounds were tested against Glucocorticoid receptor (Homo sapiens) (UniProt P04150) (assay: qHTS assay to identify small molecule antagonists of the glucocorticoid receptor (GR) signaling pathway (AID 720692)). Conditions: GR-bla HeLa, beta-lactamase FRET ratio, dexamethasone-stimulated, 18 h; activity change, negative = inhibition: at 58.5 µM (top of the series) unless noted.
Source text: U.S. Tox21 Program National Center for Advancing Translational Sciences [NCATS] NIH Chemical Genomics Center [NCGC] U.S. Environmental Protection Agency [EPA] National Institutes of Environmental Health Sciences [NIEHS] National Toxicology Program [NTP] U.S. Food and Drug Administration [FDA] Tox21 Assay Overview: The Glucocorticoid receptor (GR) is one of the members of the nuclear receptor family of ligand-dependent transcription factors. GR plays a critical role in carbohydrate, protein and lipid metabolisms and programmed cell death. CellSensor GR-bla HeLa cell line (Invitrogen) contains a beta-lactamase reporter gene under the control of the glucocorticoid response element stably integrated into HeLa cells, a cervical cancer cell line that expresses glucocorticoid receptor. The activation of the reporter gene under culture conditions can be detected by fluorescence intensity. This cell line has been used to screen the Tox21 10K compound library and to identify the compounds that inhibit the GR signaling.
Tox21 Assay Protocol Summary: The GR-bla HeLa cells were dispensed at 1500 cells/5 ul/well in 1536-well black wall/clear bottom plates using a Multidrop Combi (ThermoFisher Scientific, Waltham, MA) dispenser. After the assay plates were incubated at a 37 C/5% CO2 incubator for 4 hours, 23 nL of compounds dissolved in DMSO, positive controls or DMSO only was transferred to the assay plate by a pintool station (Kalypsys, San Diego, CA), followed by addition of 1 uL of dexamethasone (5 nM, final concentration in the well). The plates were incubated at 37 C for 18 hours. After 1 uL of LiveBLAzerTM B/G FRET substrate was added using a Flying Reagent Dispenser (Aurora Discovery, San Diego, CA), the plates were incubated at room temperature for 2 hours, and fluorescence intensity was measured by an Envision plate reader (PerkinElmer, Shelton, CT).
% is set by controls: 0 for no effect and ±100 for the full control effect; potency is the fitted concentration of half-maximal effect; tags give direction and shape of the fitted curve or compound fluorescence and quenching.

Sequence of UniProt P04150 (P04150 whole entry, looked up): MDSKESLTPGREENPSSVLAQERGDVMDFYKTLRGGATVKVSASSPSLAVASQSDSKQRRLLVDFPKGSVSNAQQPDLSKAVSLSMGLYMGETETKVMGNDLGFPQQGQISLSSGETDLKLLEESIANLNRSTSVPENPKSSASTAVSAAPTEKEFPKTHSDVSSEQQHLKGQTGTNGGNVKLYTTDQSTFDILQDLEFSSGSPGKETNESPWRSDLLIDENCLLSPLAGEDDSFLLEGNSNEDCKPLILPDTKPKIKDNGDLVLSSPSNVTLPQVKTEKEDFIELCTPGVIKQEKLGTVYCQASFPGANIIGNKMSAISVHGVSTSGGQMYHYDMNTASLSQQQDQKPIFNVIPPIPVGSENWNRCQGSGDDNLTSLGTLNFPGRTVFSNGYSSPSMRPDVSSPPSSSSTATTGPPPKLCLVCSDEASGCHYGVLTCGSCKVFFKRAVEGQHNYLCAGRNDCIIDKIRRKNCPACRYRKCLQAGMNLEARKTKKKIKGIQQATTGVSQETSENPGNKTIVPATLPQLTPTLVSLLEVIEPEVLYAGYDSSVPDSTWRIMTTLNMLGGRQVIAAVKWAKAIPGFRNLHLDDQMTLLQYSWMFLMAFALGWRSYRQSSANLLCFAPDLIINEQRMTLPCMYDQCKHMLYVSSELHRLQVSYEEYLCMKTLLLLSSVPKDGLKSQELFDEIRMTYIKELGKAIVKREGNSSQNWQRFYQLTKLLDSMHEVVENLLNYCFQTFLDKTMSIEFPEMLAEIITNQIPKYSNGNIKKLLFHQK

Compound	Potency	activity change, negative = inhibition
CC(C)N(C(=O)CCl)c1ccccc1	active: 24.5 µM	
O=Cc1ccc2c(c1)OCO2		inconclusive: 24.2%
CN(C)CCc1c[nH]c2cccc(O)c12	inactive	
Oc1c(Cl)c(Cl)cc(Cl)c1Cl	inconclusive: 23.9 µM [cytotoxic, partial curve, poor fit]	
CCCCCCCCCCCCCCCC[n+]1ccccc1	inconclusive: 48.3 µM [cytotoxic, partial curve] [middle of 4 runs]	
O=[N+]([O-])c1ccc(Oc2ccc(C(F)(F)F)cc2[N+](=O)[O-])cc1	inconclusive: 21.9 µM [inhibitor, partial curve, poor fit]	
C=CC(=O)OCCCCO		inconclusive: -1.19%
N#C/C(N)=C(/N)C#N	inconclusive: 42.4 µM [activator]	
C[C@]12CC[C@H]3[C@@H](CCC4=CC(=O)CC[C@@]43C)[C@@H]1CC[C@@H]2O	active: 2.44 µM	
CC(Oc1ccc(Oc2ncc(C(F)(F)F)cc2Cl)cc1)C(=O)O (stereo not given)	inconclusive: 4.36 µM [inhibitor, full curve]	
CC(=O)C(Cl)C(=O)N(C)C (stereo not given)		inconclusive: 50.1%
CSC1=N[C@@](C)(c2ccccc2)C(=O)N1Nc1ccccc1		inconclusive: 23.6%
CCc1ccc(C(=O)NN(C(=O)c2cc(C)cc(C)c2)C(C)(C)C)cc1		inconclusive: -23.1%
CCCCN(CC)c1c([N+](=O)[O-])cc(C(F)(F)F)cc1[N+](=O)[O-]	inactive	
O=S(=O)(c1ccc(Cl)cc1)c1cc(Cl)c(Cl)cc1Cl	inconclusive: 21.9 µM [rising, partial curve, poor fit]	inconclusive: 9.91%
O=[N+]([O-])c1cccc2cccc([N+](=O)[O-])c12		inconclusive: -1.07% [at 78.9 µM]
CCOc1cc(Oc2ccc(C(F)(F)F)cc2Cl)ccc1[N+](=O)[O-]	inactive	
CC(C)(OOC(C)(C)c1ccccc1)c1ccccc1		inconclusive: -16%

Compound	Potency	activity change, negative = inhibition
N#Cc1nn(-c2c(Cl)cc(C(F)(F)F)cc2Cl)c(N)c1S(=O)C(F)(F)F (stereo not given)	inconclusive: 23.9 µM [activator] and inconclusive: 62 µM [inhibitor, single point]	
CCOP(=O)(CN(CCO)CCO)OCC	inactive	
N#CC(Br)Br		inconclusive: 0.736%
O=[N+]([O-])c1ccccc1CCl	inactive	
O=[N+]([O-])c1c2ccccc2cc2ccccc12	inconclusive: 43.6 µM [inhibitor]	
CCCCCCCCCCCC[N+](C)(C)CCOc1ccccc1	inconclusive: 26.8 µM [cytotoxic] and inconclusive: 34.7 µM [cytotoxic, partial curve]	
COC(=O)C(C)Oc1ccc(Oc2ccc(Cl)cc2Cl)cc1 (stereo not given)		inconclusive: -35.5%
Nc1c(Cl)cc([N+](=O)[O-])cc1Cl		inconclusive: 12.2%
CCC1(c2ccc(N)cc2)CCC(=O)NC1=O (stereo not given)	inactive	
Nc1ccc(Cc2ccc(N)c(Cl)c2)cc1Cl	active: 42.2 µM	
CCOP(=S)(OCC)Oc1ccc2c(C)c(Cl)c(=O)oc2c1	inconclusive: 54.9 µM [inhibitor]	
[N-]=[N+]=[N-]		inconclusive: 6.95% [at 78.9 µM]
CC(=O)[C@H]1CC[C@H]2[C@@H]3CC[C@H]4C[C@](C)(O)CC[C@]4(C)[C@H]3CC[C@]12C	inactive	
ClC(Cl)Br		inconclusive: 11.7% [at 78.9 µM]
COC(=O)/C=C(\C)OP(=O)(OC)OC		inconclusive: -21.1%
O=[N+]([O-])c1ccc2ccc3cccc4ccc1c2c34	inconclusive: 21.9 µM [inhibitor, partial curve]	
O=P1(NCCCl)OCCCN1CCCl (stereo not given)		inconclusive: 1.63%
COC(=O)N(C(=O)N1CO[C@@]2(C(=O)OC)Cc3cc(Cl)ccc3C2=N1)c1ccc(OC(F)(F)F)cc1	inconclusive: 37.6 µM [cytotoxic, partial curve]	

Same assay, conditions: GR-bla HeLa, beta-lactamase FRET ratio, dexamethasone-stimulated, 18 h; at 58.5 µM (top of the series)

Compound	activity change, negative = inhibition
CCOP(=S)(OCC)Oc1ccc2c(C)c(Cl)c(=O)oc2c1	inconclusive: 14.7%
[N-]=[N+]=[N-]	inactive: -2.32%

Same assay, conditions: GR-bla HeLa, beta-lactamase FRET ratio, dexamethasone-stimulated, 18 h; at 78.9 µM (top of the series)

Compound	activity change, negative = inhibition
CCOP(=S)(OCC)Oc1ccc2c(C)c(Cl)c(=O)oc2c1	inconclusive: -34.6%

Reference: PubChem BioAssay (Tox21)
